Reference: PubChem BioAssay AID256 (DTP/NCI, 2004)
Toxic doses and inconclusive results are not listed. Not every entry of the source has a single result; some have several. This is not the full list of results. An entry can have further records. Values given together differ, and nothing given here explains why; dose, time, organism, isomer or construct need not be as stated for each record.

System: CD2F1 mice, L1210 leukemia ip, survival T/C
Test: NCI In Vivo Anticancer Drug Screen. Data for tumor model L1210 Leukemia (intraperitoneal) in CD2F1 (CDF1) mice
Details: higher = longer survival
Procedure, shortened: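 Mice carrying a transplanted tumor received test compound or vehicle alone. The value is the measurement in the treated group divided by that in the vehicle-treated control group.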

SMILES	T/C (endpoint: median survival time, dose: 0.63 mg/kg/injection, schedule: Q01DX009 (ip), vehicle: Klucel (hydroxypropylcellulose) (HPC))	T/C (endpoint: mean survival time, dose: 100.0 mg/kg/injection, schedule: Q04DX003 (ip), vehicle: other)
COc1c(O)cc2c(c1OC)-c1ccc(SC)c(=O)cc1C(NC(C)=O)CC2 (configuration not stated)	120 % of control and 154 % of control	–
Cc1c2ccncc2c(C)c2c1[nH]c1ccccc12	–	97 % of control, 160 % of control, 192 % of control
